# Measurements taken from the RNAGym collection of RNA variant scans (doi:10.7554/elife.90254).
# The source gives no read counts; variants with many changes may rest on few reads.
# B1: OR4K15 (parent)
# chain: GUUAACGGUCAUAGGCCAUGGAAACUAGGAGCACCAUUUCGCUGCCAGUGAAGAAAUGAACAAAGAAAAUCUGGGCCAGGCAGGCAUCAAAAGAAAUAGUCUUGCGCUCAACCAGAAAGUCUGUAAUCAUUUUAAGGGUA
# Variants of: B1
# Test: self-cleavage, relative activity (ratio to wild type); higher = more cleavage; in vitro, sequencing; the parent is a self-cleaving ribozyme
row,Variant,self-cleavage
1,A52G A59U A86G A98G,0.15
2,A18G U103C G104A,0.01
3,A5G U37C U57A,1.03
4,A27G A51U U72C,0.12
5,A51U A54G U72C,0.28
6,U9C U26C A30U A63U A89U,1.4
7,A11G A33G A47G,0.22
8,U19A A59G U127C,0.9
9,U2C A11G A66G,0.97
10,A11G A30G A69G U100C,1.13
11,U39A A89G A111G A140G,0
12,A11G G20U U120C,0.63
13,G31C A55G U72G A90G A135U,0.1
14,U103A A117G U122C,0.76
15,A59U A64C U120A U131C,0.53
16,U9C A68G A89G,1.68
17,U19C A68G A118U,0.77
18,A33G A55G A67G G79C A91C,0.09
19,A36G A90G A116G,0.16
20,A68G U72C A89U A90G,0.1
21,A23G A33U A62U U130C,0
22,A82U A126G A140G,0.16
23,G74U A86U U122A,0.15
24,A67U A68G G106U,0.02

row,Variant,self-cleavage
1,C76A A78U U103C A114U,0
2,A11U G48A A78G U120C,0.08
3,A23G A78G U87G U100C,0.2
4,A4G U49C A59G A67G A116U,0.17
5,U26C A52G U131C,0.42
6,A23G C40U A69U A110G A117G,0.2
7,C34A A78U A92G,0.64
8,A23G C32U A89G A90G,0.51
9,A62G A90G A114G A117G U120C,0.02
10,A22U U57C A116G C121U,0.48
11,A22G U100C A135U,2.63
12,A24G A54G A89U,0.79
13,A63U U70A A78U,0.47
14,A13G A67G A82G A111G U120C,0.04
15,U2A A33G A118G A125G,0.1
16,G7A A24C A78U A125G A129G,0.04
17,U2C U9C A13G,0.92
18,G7A A92G A116G,0.34
19,A56G A86G U87A,1.39
20,A68G A126U A129G,1.24
21,A62G A63G U70C U139A,0.7
22,U49A A52G A59G A114U G115U,0.01
23,A5G U57C A89G A140U,1.56
24,U12C A51G A92C A118G,0.63

row,Variant,self-cleavage
1,U39A C61U A68G U87C A94U,1.5
2,A18G A55G U139C,1.13
3,A51G A82G U87C,0.54
4,A22G A86G A96G A116G,0.24
5,U37C A92G U132C A140U,1.56
6,A23G A52G A117G G123A,1.73
7,U39C A67G A91G,1.22
8,A33G U122C A134G G136U,0.25
9,G20A A90G A96U U102A U108A U130C,0.01
10,U9C A51G A56G C77U,0.82
11,A52G A56C U108C,0.01
12,A36G A126G U139C A140G,0.43
13,U39C A51C A55G,0.7
14,U43C A67U A116G,0.39
15,A23G A27G A86G A91G A117G U122C A129G,0.07
16,U19C A22G A111G,0.07
17,A30U A59U A82U,0.44
18,A22G A96G U132C,0.81
19,U43C A55G A110U A126G,0.86
20,A23G A92G A118G,0.69
21,A11G A67G U72C U87A U122C,0.1
22,A54G G79A A90G U97C A98U,0.09
23,A90G A94G A111U A126U,0.09
24,A18G A54G A63G,1.78

row,Variant,self-cleavage
1,U9C A54G A68U U131C,0.91
2,U9C U39C A60U A135G,1.27
3,A33U A90G U130A,0.7
4,A13G A94C A114G,0.67
5,U12C C17A U72C G80A A125G,0
6,U2C A54U A69U,1.4
7,G15A G48A U102A A135G G136A,0.66
8,A23U A114U A129G,0.04
9,U43C U49C A56G A60G A95G A117G A129G U131A,0.43
10,U19A A67G A96G,1.47
11,U19C U39C A118G,1.63
12,U39A C76A G84U,0.03
13,A56U A78U A95G A129G,0.67
14,U57G C61U A118G U130C,1.04
15,U49A G84U A111G,0.03
16,U2C A11C U38C A78G A116G,0.21
17,A36G A55U A94G,1.62
18,G28U A82U U100C A114G U122C,0.06
19,A5G A67G U108A A111U,0.01
20,C40A A52U U72C A126G,0.05
21,A22G U49C U124C G137A,1.08
22,A36U A59G U100A,0.73
23,A18G A62G A111G U120C,0.04
24,A23U A51C U103C,0.49

row,Variant,self-cleavage
1,U57A A63G U72C A95G,0.2
2,A5U A47G G115U U122C,0.06
3,A23U U57C U132C,1.4
4,U2A A68U A94G,1.18
5,A64U A89G U120A,1.67
6,A23U G29U U37C,2.19
7,A64G U131C A140G,0.91
8,U37A A78G U120A,0.21
9,A22G U39C G41C A59G C85U,0.48
10,A18G A68G U102C A118C A129U,1
11,U9C A11G U87C,1.13
12,A33G A78C U130A,0.12
13,A24G U49C A117G U127C,0.99
14,U38C A60G A67G A140U,1.31
15,A111U A116U U130C A135C,0
16,A59G A86G U120C G123A A126G,0.54
17,A59G A67G U87C,1.34
18,A5G A36G U127A,0.65
19,A18C U38C U120C,0.39
20,G8A A22G A67G A78G,0.2
21,A22G U43C U49C A63G,1.36
22,A33G U37C A89G,1.96
23,G7A G53U A60G A95G U130C,0.75
24,A22G A47G A69G G74U U127C,0.09

row,Variant,self-cleavage
1,A33U A89U U108C A111G A116G,0.01
2,U49G U57C G93A,0.57
3,A36G A56G G79U,0.12
4,A60G A82G U87C G137A,0.22
5,U39A A51G U108C,0.03
6,U12A A91U G104A G115U,0.01
7,A33U A55G A98G U103C A110G,0.02
8,A24G A60G U102A A129U,0.17
9,A51U A68U A90G,1.17
10,U43C A68G A91G,1.49
11,A13C A47U A98G A114U,0.03
12,U43A A56G A91U,1.66
13,A55G A78U A110U,0.08
14,A24G C34A A56C A59G U72C,0.31
15,A52G U72C U120C,0.12
16,U49A A95G A134G,2.61
17,A64G A78U A82G A92G,0.12
18,U49A U57C U70C,0.52
19,U43A A55G U139C,1.34
20,C6A A24G A66U A82G,0
21,U39C A56G A60G A140G,1.4
22,A66U A89G A90G A92G,0.31
23,C25A A51G A96G A117G,2.08
24,A4G A23G A78G C109U A117G,0.23

row,Variant,self-cleavage
1,A59G A91G C101A U132A,0.03
2,A95G U103C A126G U132A,1.16
3,U37C U38C A110G A117G A140G,0.18
4,A5G A24G A60G A92G,1.09
5,A23U U37C A94G U132C,1.87
6,A11U C40U A68G A78G,0.31
7,A22G A92U A111G A114G,0.03
8,C6U A111G A129G,0.02
9,A11G A82U A140U,0.12
10,A89G A125G U130G A140G,0.09
11,A27U G29A A134U,1.22
12,A33G A51G U57C A69G,0.48
13,A11G A78G A89G A94G A96G,0.11
14,U38C A54G A62U A111G,0.02
15,U9C A36G U72A A91G U139C,0.13
16,A22G A62G A90G A111G,0.09
17,G7A A52G A94U A126G,1.27
18,A36G U49A A51G,0.24
19,A62U A67U A94G U100A,1.09
20,A24G A52G A90G U108A,0.04
21,A22G C25U A96G,1.86
22,A4G U43A G58A A90G U108C G115U,0.02
23,U2C A47G A135G,1.83
